Laboratory results from the RNAGym collection of RNA variant scans (doi:10.7554/elife.90254).
The source gives no read counts; variants with many changes may rest on few reads.

B1: LINE1-mini (parent)
chain: GGCAGAGCUCAACACAGCGUGGCAAAGUGGCUGUGGCUAGACUGCC

Variants of: B1
Test: self-cleavage, relative activity (ratio to wild type); higher = more cleavage; in vitro, sequencing; the parent is a self-cleaving ribozyme

Variant | self-cleavage
GGCAGAGCUCUACACAGCGAGGCAGAGUGGCUGUGGCUAGACUCCC [A11U U20A A25G G44C] | 0.03
GGCAGAGCUCUACACAGCGAGGCAAAGUGGCUGUGGGUAGACUGCC [A11U U20A C37G] | 0
GGCAGAGCUCUACACAGCGCGGCAAAGUGGCUGUGGCUAUACUGCC [A11U U20C G40U] | 0.05
GGCAGAGCUCUACACAGCGGGGCAAAGUGGCUGUGGCUAGAAUGCC [A11U U20G C42A] | 0.01
GGCAGAGCUCUACACAGCGUGGCAAAGAGGCUGUGGAUAGACUGGC [A11U U28A C37A C45G] | 0
GGCAGAGCUCUACACAGCGUGGCAAAGAGGCUGUGGCUAAACUGCC [A11U U28A G40A] | 0.01
GGCAGAGCUCUACACAGCGUGGCAAAGCAGCUGUUGCUAGACUGCC [A11U U28C G29A G35U] | 0.01
GGCAGAGCUCUACACAGCGUGGCAAAGUGGCCUUGGCUAGACUGCC [A11U U32C G33U] | 0.06
GGCAGAGCUCUACACAGCGUGGCAAAGUGGCUGAGGCUAGACAGCC [A11U U34A U43A] | 0.03
GGCAGAGCUCUACACAGCGUGGCAAAGUGGCUGCGGCUAGACUACC [A11U U34C G44A] | 0.03
GGCAGAGCUCUACACAGCGUGGCAAAGUGGCUGGUGCUAGACUGCC [A11U U34G G35U] | 0.03
GGCAGAGCUCUACACAGCGUGGCAAAGUGGCUGUGGCACGACUGCC [A11U U38A A39C] | 0.11
GGCAGAGCUCUACACAGCGUGGCAAAGUGGCUGUGGCCAGACUGUC [A11U U38C C45U] | 0.02
GGCAGAGCUCUACACAGCGUGGCAAAGUGGCUGUGGCGAUACUGCC [A11U U38G G40U] | 0.06
GGCAGAGCUCACCCCAGCGUAGCAAAGUGGCUGUGGCAAGACUUCC [A12C A14C G21A U38A G44U] | 0.02
GGCAGAGCUCACCCCAGCGUGGCAAAGUGGCUGUGGCUAGACUACC [A12C A14C G44A] | 0.04
GGCAGAGCUCACCGCGGCGUGGCAAUGUGGCUGUGGCUAAACUGCC [A12C A14G A16G A26U G40A] | 0.24
GGCAGAGCUCACCGCAGUGUGGCAAAGUGGCUGUGGCUAGACUGCC [A12C A14G C18U] | 0.01
GGCAGAGCUCACCGCAGCGUGGCAAAGUGGCUGUGGAUGGACUGCC [A12C A14G C37A A39G] | 0.02

Variant | self-cleavage
GGCAGAGCUCACCGCAGCGUGGCAAAGUGGCUGUCGCUAGACUGCC [A12C A14G G35C] | 0.11
GGCAGAGCUCACCACCGCGGGACAAAGUGGCUGUGGCUAGACUGCC [A12C A16C U20G G22A] | 0.01
GGCAGAGCUCACCACGGCGUUGCAAAGUGGCUGUGGCUAGACUGCC [A12C A16G G21U] | 0.02
GGCAGAGCUCACCACUGCGUGGCACAGUAGCUGUGGCUAGAGUGCC [A12C A16U A25C G29A C42G] | 0.04
GGCAGAGCUCACCACUGCGUGGCAAAGUGGCUGUUGUUAGACUGCC [A12C A16U G35U C37U] | 0
GGCAGAGCUCACCACUGCGUGGCAAAGUGGCUGUGGCUAGACUUCC [A12C A16U G44U] | 0.01
GGCAGAGCUCACCACAGCGUGGCAGAGUGGUUGUGGCUAGGCUGCC [A12C A25G C31U A41G] | 0
GGCAGAGCUCACCACAGCGUGGCAGAAUGGCUGUGGCAAGACUGCC [A12C A25G G27A U38A] | 0
GGCAGAGCUCACCACAGCGUGGCAGAGUCGCUGUGGCUAGACCGCC [A12C A25G G29C U43C] | 0
GGCAGAGCUCACCACAGCGUGGCAUUGUGGCUGUGGUUAGACUGCC [A12C A25U A26U C37U] | 0.01
GGCAGAGCUCACCACAGCGUGGCAUAGUGGCUGUGGCUAGGCUGCC [A12C A25U A41G] | 0.06
GGCAGAGCUCACCACAGCGUGGCAAGGUGGCUGUGGCUAAACUUCC [A12C A26G G40A G44U] | 0.01
GGCAGAGCUCACCACAGCGUGGCAAUGUGGCUGUGUCUAGACUGCU [A12C A26U G36U C46U] | 0
GGCAGAGCUCACCACAGCGUGGCAAAGUGGCUGUGGCUAGGUGGCC [A12C A41G C42U U43G] | 0.01
GGCAGAGCUCACAGCAGCGUGGCAAAGUGGCUGGGGCUAGACUGCC [A12C C13A A14G U34G] | 0.01
GGCAGAGCUCACAACAGCGUGGCGAAGUGGCUGUGGCUAGACUGGC [A12C C13A A24G C45G] | 0.03
GGCAGAGCUCACAACAGCGUGGCACAGUGGCUGUGGCUGGAUUGCU [A12C C13A A25C A39G C42U C46U] | 0.03
GGCAGAGCUCACAACAGCGUGGCAACGUGGCUGUUGCUAGACUGCC [A12C C13A A26C G35U] | 0.05
GGCAGAGCUCACAACAUCGUGGCAAAGUGGCUGUGGCUAGACUGUC [A12C C13A G17U C45U] | 0

Variant | self-cleavage
GGCAGAGCUCACAACAUCGUGGCAAAGUGGCUGUGGCUAGACUCCC [A12C C13A G17U G44C] | 0.02
GGCAGAGCUCACAACAGCCUGGCAAAGUGGCUGUGGCUUGACUGCC [A12C C13A G19C A39U] | 0.01
GGCAGAGCUCACAACAGCGUGGCAAAGUGGCUGGGCCUAGACUGCC [A12C C13A U34G G36C] | 0.03
GGCAGAGCUCACGAAAGCCUGGCAACGUGGCUAUGGCUAGACUGCC [A12C C13G C15A G19C A26C G33A] | 0.02
GGCAGAGCUCACUAAAGCGUGGCAAAGUGGCUGUGGCUAGACUGCC [A12C C13U C15A] | 0.03
GGCAGAGCUCACUACAGCGUCGCAGAGUUGCUGUGGCUAGACUGCC [A12C C13U G21C A25G G29U] | 0.01
GGCAGAGCUCACUACAGCGUGGCAAAUUGGCUGUGGCUAGACUGCC [A12C C13U G27U] | 0.01
GGCAGAGCUCACUACAGCGUGGCAAAGUGGCUGGGGAUAAACUGCC [A12C C13U U34G C37A G40A] | 0.01
GGCAGAGCUCACUACAGCGUGGCAAAGUGGCUGUGGCUAGACCGCC [A12C C13U U43C] | 0.07
GGCAGAGCUCACCAAGGCUUGCCACAGUGGCAGUGGCUAGACUUCC [A12C C15A A16G G19U G22C A25C U32A G44U] | 0.01
GGCAGAGCUCACCAAUGCAUGGCAAAGUGGCUGUGGCUAGACUACC [A12C C15A A16U G19A G44A] | 0.03
GGCAGAGCUCACCAGAGCGUGGCAAAGUGGCUGUGGCUAGUAUGCC [A12C C15G A41U C42A] | 0
GGCAGAGCUCACCAUAGCCUGGCAACGUGGCUGUGGCUAGACUGCC [A12C C15U G19C A26C] | 0
GGCAGAGCUCACCAUAGCGUGGCAAAGUAGCUGUGGCUAGAAUGCC [A12C C15U G29A C42A] | 0.01
GGCAGAGCUCACCACAGAGUGCCAAAGUGGCUGUGGCUAGACUGCC [A12C C18A G22C] | 0.01
GGCAGAGCUCACCACAGAGUGGCAAAUUGGCUGUGGCUAGACUGCC [A12C C18A G27U] | 0.1
GGCAGAGCUCACCACAGUGUGGCCAAGUGGGUGUUGCUAGUCUGCC [A12C C18U A24C C31G G35U A41U] | 0
GGCAGAGCUCACCACAGUGUGGCAAAGUGGCUGUGGCUAGAUAGCC [A12C C18U C42U U43A] | 0.01
